# According to the supplement of paper PMC3334620:
# In all, about 33,000 sequences were measured (“E-score (-0.5 to 0.5)”: median about -0.012, highest 2% from about 0.29 on). The list shows a part of the results.
# Biological target: T1, Ybr033w (UniProt P38073)
# T1 sequence: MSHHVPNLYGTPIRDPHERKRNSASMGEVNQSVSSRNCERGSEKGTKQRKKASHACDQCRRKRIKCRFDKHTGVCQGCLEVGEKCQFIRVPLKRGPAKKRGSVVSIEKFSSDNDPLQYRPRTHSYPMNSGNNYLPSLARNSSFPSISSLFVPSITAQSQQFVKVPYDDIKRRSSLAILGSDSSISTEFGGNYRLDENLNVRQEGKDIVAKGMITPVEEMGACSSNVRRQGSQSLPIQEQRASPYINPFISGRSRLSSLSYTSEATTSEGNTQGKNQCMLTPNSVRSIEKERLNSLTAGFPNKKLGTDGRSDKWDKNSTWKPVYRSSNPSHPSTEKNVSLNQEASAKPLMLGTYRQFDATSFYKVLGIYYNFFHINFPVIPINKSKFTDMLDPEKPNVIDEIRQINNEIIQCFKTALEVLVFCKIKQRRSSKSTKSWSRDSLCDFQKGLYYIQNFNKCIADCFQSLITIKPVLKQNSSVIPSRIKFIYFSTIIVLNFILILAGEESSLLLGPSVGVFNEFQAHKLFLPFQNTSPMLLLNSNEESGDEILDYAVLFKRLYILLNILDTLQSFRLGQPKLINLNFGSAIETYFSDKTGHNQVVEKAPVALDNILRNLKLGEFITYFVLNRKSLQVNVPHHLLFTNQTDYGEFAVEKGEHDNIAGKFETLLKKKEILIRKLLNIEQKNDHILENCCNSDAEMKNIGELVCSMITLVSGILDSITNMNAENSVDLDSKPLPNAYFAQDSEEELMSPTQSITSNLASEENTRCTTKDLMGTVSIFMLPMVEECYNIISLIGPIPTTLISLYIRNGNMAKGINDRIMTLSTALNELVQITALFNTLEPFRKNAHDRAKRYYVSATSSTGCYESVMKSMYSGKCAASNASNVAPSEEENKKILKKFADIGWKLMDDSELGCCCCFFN
# Assay: PBM E-score (8-mer binding enrichment) (E-score (-0.5 to 0.5)); higher = stronger / more preferred TF binding; most listed sequences are background and not binding sites
# Conditions: protein concentration: 200 nM; construct: GST-full length
# Outline: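 Using PURExpress in vitro transcription/translation, GST-tagged yeast transcription factors were made in full-length or DNA-binding-domain form. These were applied at about 100-200 nM to double-stranded universal all-10-mer Agilent arrays, and bound protein was detected with fluorescent anti-GST. Scans were normalised with masliner before the Universal PBM Analysis Suite assigned E-scores to ungapped eight-base words pooled with their reverse complements.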
row,Sequence,PBM E-score
1,CATAATCG,0.0532
2,AAGAGGTG,-0.0113
3,CTACCGCA,-0.0903
4,ACTCTAAA,0.196
5,CTGAAGTC,0.0388
6,AGCGCGCT,0.0295
7,GCTTGCCA,-0.0433
8,TCGGCGAA,-0.0967
9,ACTACTAG,0.168
10,AGGTATTA,0.208
11,AGAAGTCC,-0.166
12,CCGGCCGG,-0.109
13,CTGAACGC,-0.0953
14,CAATACGC,0.0249
15,AGGTGAGG,-0.0581
16,GCCCTGCC,-0.33
17,CCCGGCAA,-0.0779
18,GCATCACC,-0.281
19,TTCCTAAA,0.107
20,GGTGACAA,0.114
21,AACCTATA,0.24
22,AGCTGGTC,-0.0648
23,CGTCTAAG,-0.142
24,CCAAGACG,-0.057
25,ACTGTCCA,-0.00789

row,Sequence,PBM E-score
1,CTTGTCGA,-0.0906
2,ACCTGGAT,-0.154
3,TATCGATA,0.083
4,AGCCTAAG,-0.204
5,ACGCGTAT,0.0786
6,GGAGTAGA,-0.00378
7,ATCGACAG,-0.0467
8,GTTGTCTA,-0.0018
9,CACACAGA,0.0801
10,CTTGCACA,-0.0229
11,AATGAGGG,-0.119
12,GACAAAGC,-0.0281
13,CCCACGTC,-0.139
14,CGCGGCAG,-0.0822
15,ACCTATCT,0.105
16,AGCCCGAC,-0.0804
17,ACTGTTTC,0.0333
18,GATCGAGC,-0.00942
19,GACCCCTA,-0.28
20,CAGTTCCG,-0.0393
21,ATAAGCGC,0.0585
22,ATGAGTCC,-0.0465
23,AAATTTGG,0.0261
24,GCCAGTCC,-0.261
25,AGAGCCAT,-0.137

row,Sequence,PBM E-score
1,AGACCCCG,-0.142
2,CTGCACTC,-0.174
3,CGTCGAAC,-0.0544
4,AGACAAAC,-0.0158
5,CTAGTGGC,-0.104
6,AACAGGTA,0.126
7,AATAGGCC,0.0592
8,CTACCGAG,-0.167
9,ACATGCAG,-0.104
10,CTTTAATA,0.227
11,CCTCGACC,-0.256
12,CTCAGCGA,0.00451
13,AGCAAGCC,-0.126
14,AAGCGTGA,-0.108
15,CCGGATGA,0.289
16,AGTGGTCA,-0.103
17,ATGAGGTC,-0.0418
18,CAAACGAA,0.0948
19,AACAAACT,0.341
20,CCACCCGG,-0.149
21,ACTCAAAG,0.127
22,CCCAGTCA,-0.298
23,CCGGATCC,-0.129
24,AAGGGAGC,-0.235
25,ACCTGAAA,-0.00483

row,Sequence,PBM E-score
1,CAGCGGTC,-0.271
2,ACTTCCGG,0.117
3,GATAAAGC,0.159
4,AAGCATGT,0.159
5,GTAGTCGA,0.0214
6,AGTACATG,0.0488
7,GGGTGTAC,-0.134
8,ACCTGACA,0.00926
9,ACTATGTG,0.0259
10,ATTACTGG,-0.0266
11,GCACCTTA,-0.063
12,CAGGATTC,-0.0774
13,ACAGTCTC,-0.156
14,CGCGAAGC,0.0254
15,CGATCACG,0.103
16,CGGCCACG,-0.165
17,AGCGCAGG,-0.12
18,ACTTAGAG,-0.0868
19,CAGCAGGC,-0.0664
20,CGGACTAC,0.0421
21,AGCCGGTG,-0.201
22,CTCGCAGA,-0.19
23,ATCCTACC,-0.00627
24,ACGTCCAT,0.00324
25,GAGGGTAC,-0.292

row,Sequence,PBM E-score
1,AGGTGATC,-0.0226
2,GGAATTGA,0.0753
3,ACTAATGA,0.272
4,CACTCGTA,-0.117
5,GGGTTACA,-0.0926
6,ACGTATTA,0.229
7,ATTGAAAC,0.164
8,TCCGCTCA,-0.115
9,CGAATTCA,-0.00151
10,AAATGGCG,-0.00813
11,CTGGATCA,0.228
12,CCTACGTA,0.0174
13,CGGCAATA,0.085
14,TAGAACTA,0.151
15,AGCCAGGC,-0.0905
16,ATCGGTTG,0.105
17,ATGAGGCG,-0.147
18,CTGGGGGC,-0.297
19,ACGATAGT,0.188
20,GGAGTTCA,0.0457
21,AGCAATGA,0.13
22,TGATCACA,-0.021
23,AGCAACGG,0.0639
24,CTGGTGTC,-0.153
25,ATTTTTAG,0.179

row,Sequence,PBM E-score
1,ACTCACGA,-0.00501
2,CACAATCC,0.0977
3,AAGGAGCA,-0.0833
4,CTCGACAG,-0.106
5,AACGAACT,0.0287
6,CCAAACTA,0.169
7,CGGAAAGA,-0.0353
8,GAGCTGCC,-0.161
9,TCGTCGCA,0.126
10,CCATAACC,-0.122
11,GACACTGC,-0.0727
12,AGCCAAAT,0.102
13,AAATGTCG,-0.0162
14,CCGTCTGC,-0.122
15,ATGCGGTA,-0.133
16,ACAACGAG,-0.0168
17,TATTACAA,0.307
18,CTAGGGGA,-0.283
19,CAGTCACA,0.0905
20,AATCTCAT,0.166
21,ACACCAAA,0.175
22,GCACGTGC,-0.192
23,GCTGGAAC,0.106
24,CGGATTCC,-0.0535
25,AGGTAACC,-0.0673

row,Sequence,PBM E-score
1,GAGGGCGA,-0.321
2,CTGATTCC,-0.0421
3,CAGAGGTC,-0.228
4,CACGCCAC,-0.0948
5,AAGCACGA,0.156
6,AAAACAAA,0.176
7,CGTCACGC,-0.0176
8,CCCGATCC,-0.326
9,GCATTTAC,0.109
10,AATAGTTG,0.207
11,AGTTGCCC,0.0108
12,GGGAAAAA,0.453
13,AGCCCACC,-0.26
14,ACATTGAT,0.197
15,CGAGGAGA,-0.283
16,ATCTGTGC,-0.0169
17,ACAGCGCG,-0.0663
18,AGGAAGTC,-0.107
19,AAGGCAAG,-0.0759
20,AGTAGATA,0.311
21,GCCCGACC,-0.274
22,AGTAATGA,0.281
23,CGCGCCTC,-0.0262
24,AAGTCAGT,0.0918
25,GTTCCAAA,0.146

row,Sequence,PBM E-score
1,ACCTCGAC,-0.0537
2,CTAGGGTA,-0.17
3,ATTCTATC,0.0825
4,AGGACACC,-0.0835
5,AATAGCAG,0.00447
6,AATCGGTG,-0.138
7,GATCATGC,-0.043
8,AGGTGGGA,-0.224
9,AATAAACA,0.244
10,ACCGCTGA,-0.108
11,GGCATATA,0.16
12,CCAAACGC,-0.0491
13,TGGGTAAA,-0.0284
14,ACGTTGTG,-0.101
15,CGGCGACA,-0.235
16,AATGGGAG,0.0819
17,GACTCCGA,-0.0632
18,ACGTCTCC,-0.133
19,GAGAAATC,0.248
20,ATCTTTGA,0.237
21,GCCGACAA,-0.0857
22,AAGCCCGT,-0.245
23,AAGACTAG,-0.223
24,GTCTTGAA,0.0898
25,CTTCAGCA,-0.0778

row,Sequence,PBM E-score
1,TAAAAACA,0.221
2,ACCCGATG,0.0183
3,GCACAGCC,-0.0782
4,CGGAACCG,-0.152
5,CGTAACCA,0.106
6,CCTTCCCC,-0.259
7,ACACCAGA,0.059
8,CCAAGGGC,-0.153
9,AAACGTTA,0.108
10,AATGGGAT,-0.0179
11,CACGAGAG,-0.159
12,CTAATCTC,-0.0112
13,TCAGCTAA,0.0703
14,GACCTGAA,-0.0895
15,CGCATGTC,-0.105
16,GATACATA,0.263
17,AAAGTGGG,-0.0583
18,AATTATAT,0.271
19,CGCGCGAG,-0.0674
